Assay results taken from PubChem BioAssay AID485281 (National Center for Advancing Translational Sciences (NCATS), 2010).
The whole screen tested about 350,000 compounds, of which about 260 (0.074%) were called active. The shares of active, inactive and inconclusive entries below differ from those in the screen. Calls come from the whole dose curve; as a rule, active = well fitted inhibition curve with a large enough effect; inconclusive = small, poorly fitted or top-dose-only effect; inactive = no such curve, though single readings can be large or run the other way. Potencies beside an inconclusive call are fits to weak or partial responses and may not hold up.

Target: Ferritin light chain (Equus caballus) (UniProt P02791)
Experiment: qHTS Assay for Identification of Novel General Anesthetics; note: nearly all actives have a fitted effect of over 20% in size
Details: apoferritin/1-aminoanthracene competitive binding, fluorescence; activity change, negative = displacement: at 77.5 µM (top of the series)
Procedure, shortened: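 10 uM apoferritin + 50% sat. 1-AMA, PBS; cpd 10 min RT; Ex380/Em535 endpoint; normalized to free probe vs complex; 4-param Hill fit; propofol titration as pos. ctrl.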
% is set by controls: 0 for no effect and ±100 for the full control effect; potency is the fitted concentration of half-maximal effect; tags give direction and shape of the fitted curve.

Chain of UniProt P02791 (P02791 whole entry, looked up): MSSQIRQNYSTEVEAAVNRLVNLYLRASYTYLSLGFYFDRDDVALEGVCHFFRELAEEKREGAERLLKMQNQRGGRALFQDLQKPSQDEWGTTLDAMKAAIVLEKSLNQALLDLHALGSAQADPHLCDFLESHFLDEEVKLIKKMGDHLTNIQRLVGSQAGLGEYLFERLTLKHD

Row | SMILES | Potency | activity change, negative = displacement
1 | CCSc1nnc(-c2ccc(S(=O)(=O)NCc3cccs3)cc2)o1 | inconclusive: 17.8 µM [inhibitor, partial curve] | –
2 | CSc1nc(-c2ccccc2)nn1S(=O)(=O)c1ccc(Cl)cc1 | – | inactive: -5.36%
3 | CCCCCC(=O)Nc1ccc2oc(-c3ccncc3)nc2c1 | inconclusive: 28.2 µM [inhibitor, partial curve] | –
4 | COc1ccc(/C=C(/NC(=O)c2ccccc2OC)C(=O)Nc2ccc(C(=O)O)cc2)cc1 | inconclusive: 31.6 µM [inhibitor, partial curve] | –
5 | COC(=O)CSc1ncc(S(=O)(=O)c2ccccc2)c(=O)[nH]1 | – | inactive: 17.8%
6 | COc1ccc(NC(=O)N2CCc3ccccc3C2)cc1 | – | inactive: -10.5%
7 | CCOc1cc(CNC(=O)Cn2c(=O)c3cccn3c3ccc(F)cc32)cc(OCC)c1OCC | inconclusive: 0.891 µM [inhibitor, full curve, poor fit] | –
8 | CCN(CC)S(=O)(=O)c1ccc2oc(Nc3ccc4c(c3)OCCO4)nc2c1 | inconclusive: 14.1 µM [inhibitor, partial curve] | –
9 | Cc1ccccc1NC(=O)CSc1cn(CC(=O)N2CCCCCC2)c2ccccc12 | inconclusive: 12.6 µM [inhibitor, single point] | –
10 | COc1cc(S(=O)(=O)N(Cc2cccnc2)Cc2ccco2)ccc1-n1cnnn1 | – | inactive: -16.6%
11 | CCC1CCCCN1C(=O)CSc1nc(N)cc(N)n1 (stereo not drawn) | inconclusive: 31.6 µM [inhibitor, partial curve] | –
12 | CCCN1C(=O)c2ccccc2NC1c1ccc(OC)c(CSc2ccccn2)c1 (stereo not drawn) | – | inactive: 127%
13 | O=C(Nc1ccc(F)cc1)c1cccc(N2C(=O)C3C4C=CC(C5CC45)C3C2=O)c1 (stereo not drawn) | inconclusive: 7.94 µM [inhibitor, partial curve] | –
14 | COc1ccccc1C(=O)NNC(=O)c1nn(Cc2ccccc2)c(=O)c2ccccc12 | inconclusive: 17.8 µM [inhibitor, partial curve] | –
15 | O=c1ccn(-c2cccc(C(F)(F)F)c2)nc1-c1ccn(-c2cccc(Cl)c2)n1 | inconclusive: 31.6 µM [inhibitor, partial curve] | –
16 | Cc1ccccc1CSc1ncnc2ccccc12 | inconclusive: 22.4 µM [inhibitor, partial curve] | –
17 | COC(=O)c1cc2oc3ccccc3c2n1CC(=O)Nc1ccc(C)c(F)c1 | – | inactive: 34.2%
18 | CC[C@@]12C(=O)N(c3ccc(OC)cc3)C(=O)N1[C@H](c1cccc(C)c1)[C@@H]1C(=O)N(Cc3ccccc3)C(=O)[C@@H]12 | inconclusive: 3.55 µM [inhibitor, partial curve] | –
19 | CC(=O)c1ccccc1Oc1cc(NN2CCCCC2)c([N+](=O)[O-])cc1[N+](=O)[O-] | inconclusive: 35.5 µM [inhibitor, partial curve] | –
20 | COc1cccc(NC(=O)Nc2nc(SC(C)(C)C)ns2)c1 | inconclusive: 5.01 µM [inhibitor, full curve] | –
21 | COc1ccc(CCNC(=S)NC(=O)c2ccc(Br)cc2)cc1OC | inconclusive: 35.5 µM [inhibitor, partial curve] | –
22 | COC(=O)C(C)(C)ONC(=O)Nc1ccccc1Cl | inconclusive: 22.4 µM [inhibitor, partial curve] | –

Row | SMILES | Potency | activity change, negative = displacement
23 | O=C1C2C3C=CC(C4CC34)C2C(=O)N1/N=C/c1ccc(-c2ccc(F)cc2[N+](=O)[O-])o1 (stereo not drawn) | inconclusive: 25.1 µM [inhibitor, partial curve] | –
24 | O=C(O/N=C1\CCCc2ccccc21)c1cccs1 | inconclusive: 28.2 µM [inhibitor, partial curve] | –
25 | CCOC(=O)c1[nH]c2ccccc2c1NC(=O)c1ccccc1F | – | inactive: 204%
26 | O=C(NC(=S)Nc1ccc2c(c1)OCCO2)c1ccccc1 | inconclusive: 25.1 µM [inhibitor, partial curve] | –
27 | COc1ccc(NC(=O)/C(C#N)=C\c2ccc(N3CCOCC3)o2)cc1 | – | inactive: -19.3%
28 | Cc1ccccc1NC(=O)c1ccc2[nH]c(C)c(C)c2c1 | inconclusive: 14.1 µM [inhibitor, partial curve] | –
29 | Cc1ccc(/C=C(\C#N)C(=O)NC(C)c2ccccc2)o1 (stereo not drawn) | inconclusive: 35.5 µM [inhibitor, single point] | –
30 | O=c1[nH]c(NNC(=S)NC2CCCCC2)nc2c1C1(CCCC1)Cc1ccccc1-2 | inconclusive: 8.91 µM [inhibitor, partial curve] | –
31 | COc1cc(COC(=O)c2cnc(C)cn2)c(OC)cc1Br | – | inactive: 0.409%
32 | CCc1ccc(C(C)NC(=S)NCc2ccc(F)cc2)cc1 (stereo not drawn) | inconclusive: 5.01 µM [inhibitor, full curve] | –
33 | CSc1ccc(/C=N\NC(=O)CC(=O)NC(C)C)cc1 | inconclusive: 28.2 µM [inhibitor, partial curve] | –
34 | COc1ccc(C(=O)N/N=C(\C)CC(=O)Nc2ccc(N(C)C)cc2)c(OC)c1 | inconclusive: 14.1 µM [inhibitor, partial curve] | –
35 | COc1cc(OC)c(NC(=O)C2=C(C)C(=O)OC23CCCCCC3)cc1Cl | inconclusive: 17.8 µM [inhibitor, partial curve] | –
36 | CC(=O)c1cccc(NC(=O)C(OC(=O)c2cccs2)c2ccccc2)c1 (stereo not drawn) | inconclusive: 6.31 µM [inhibitor, partial curve] | –
37 | O=C1OC(C(=O)Nc2ccccc2)Cc2ccccc21 (stereo not drawn) | inconclusive: 31.6 µM [inhibitor, single point] | –
38 | O=C(c1cc(COc2ccc3ncccc3c2)on1)N1CCCCCC1 | inconclusive: 17.8 µM [inhibitor, partial curve] | –
39 | O=C(CSCc1ccc(Cl)cc1)N/N=C/c1ccccc1 | inconclusive: 22.4 µM [inhibitor, partial curve] | –
40 | CCOC(=O)[C@H](CCc1ccccc1)N[C@@H](C)C(=O)N1[C@H](C(=O)O)C[C@H]2CCCC[C@@H]21 | – | inactive: -13%
41 | O=C(CSc1nc2ccsc2c(=O)n1Cc1ccccc1)NCC1CCCO1 (stereo not drawn) | – | inactive: -8.77%
42 | O=C(C1CC1)N1CCN=C1SCc1cccc(C(F)(F)F)c1 | inconclusive: 35.5 µM [inhibitor, partial curve] | –
43 | O=C(CNC(=O)c1cccc(Br)c1)N/N=C/c1cccnc1 | inconclusive: 15.8 µM [inhibitor, partial curve] | –
